Test system: NCI-H322M
Experimental: The primary anticancer assay was performed on a panel of sixty human cancer cell lines derived from nine diseases, in accordance with the protocol of the Drug Evaluation Branch, National Cancer Institute, Bethesda. Novel compounds were added to the cells at a single concentration (10^−2 µM) and incubated for 48 h. The cytotoxic and/or growth inhibitory effects of every compound were evaluated using the sulforhodamine B (SRB) assay. The obtained data were reported as the percentage of growth of the treated cells compared to the untreated control. […] The SRB assay was used to estimate cell viability or growth. Using absorbance measurements [time zero (Tz), control growth in the absence of drug (C), and test growth in the presence of drug (Ti)], the percentage growth was calculated for each drug concentration. Percentage growth inhibition was calculated as follows:
[(Ti − Tz)/(C − Tz)] × 100 for concentrations for which Ti ≥ Tz,
[(Ti − Tz)/Tz] × 100 for concentrations for which Ti < Tz.
Dose–response parameters (GI50, TGI) were calculated for each compound. Molar concentration of the compound that inhibits 50% net cell growth (GI50) was calculated from [(Ti − Tz)/(C − Tz)] × 100 = 50, which is the drug concentration resulting in a 50% lower net protein increase in the treated cells (measured by SRB staining) as compared to the net protein increase seen in the control cells. The drug concentration resulting in total growth inhibition (TGI) was calculated from Ti = Tz. Values were calculated for each of these parameters if the level of activity was reached; however, if the effect was not reached or was excessive, the value for that parameter was expressed as more or less than the maximum or minimum concentration tested. Compounds having GI50 values ≤ 100 μM were declared to be active.

## COc1cc(NC2=NC(=O)C(=Cc3c[nH]c4ccccc34)S2)cc(OC)c1OC [Les-6418, 5-((1H-Indol-3-yl)methylene)-2-((3,4,5-trimethoxyphenyl)amino)thiazol-4(5H)-one]
48 h
  TGI: 21.2 µM
Homo sapiens, 48 h
  GI50: 6.38 µM
Homo sapiens, 48 h, read-out: LC50 (the source's name)
  CC50: 54.2 µM
MG_MID_60/value
  SI (TGI): 0.88
